Measurements from publication PMC4336329 (PLoS ONE, 2015).
Screen size: about 310,000 compounds; about 14,000 (4.5%) showed an effect of 50% or more. Effects have a minus sign here. The list shows a part of the results.

target: human ether-à-go-go-related gene (hERG) potassium channel (human, UniProt Q12809); assay: primary screen, population patch clamp on CHO cells stably expressing hERG
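Note: peak tail current of the secondary pulse compared with the same well before compound.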

Sequence of human ether-à-go-go-related gene (hERG) potassium channel (Q12809 whole entry, looked up): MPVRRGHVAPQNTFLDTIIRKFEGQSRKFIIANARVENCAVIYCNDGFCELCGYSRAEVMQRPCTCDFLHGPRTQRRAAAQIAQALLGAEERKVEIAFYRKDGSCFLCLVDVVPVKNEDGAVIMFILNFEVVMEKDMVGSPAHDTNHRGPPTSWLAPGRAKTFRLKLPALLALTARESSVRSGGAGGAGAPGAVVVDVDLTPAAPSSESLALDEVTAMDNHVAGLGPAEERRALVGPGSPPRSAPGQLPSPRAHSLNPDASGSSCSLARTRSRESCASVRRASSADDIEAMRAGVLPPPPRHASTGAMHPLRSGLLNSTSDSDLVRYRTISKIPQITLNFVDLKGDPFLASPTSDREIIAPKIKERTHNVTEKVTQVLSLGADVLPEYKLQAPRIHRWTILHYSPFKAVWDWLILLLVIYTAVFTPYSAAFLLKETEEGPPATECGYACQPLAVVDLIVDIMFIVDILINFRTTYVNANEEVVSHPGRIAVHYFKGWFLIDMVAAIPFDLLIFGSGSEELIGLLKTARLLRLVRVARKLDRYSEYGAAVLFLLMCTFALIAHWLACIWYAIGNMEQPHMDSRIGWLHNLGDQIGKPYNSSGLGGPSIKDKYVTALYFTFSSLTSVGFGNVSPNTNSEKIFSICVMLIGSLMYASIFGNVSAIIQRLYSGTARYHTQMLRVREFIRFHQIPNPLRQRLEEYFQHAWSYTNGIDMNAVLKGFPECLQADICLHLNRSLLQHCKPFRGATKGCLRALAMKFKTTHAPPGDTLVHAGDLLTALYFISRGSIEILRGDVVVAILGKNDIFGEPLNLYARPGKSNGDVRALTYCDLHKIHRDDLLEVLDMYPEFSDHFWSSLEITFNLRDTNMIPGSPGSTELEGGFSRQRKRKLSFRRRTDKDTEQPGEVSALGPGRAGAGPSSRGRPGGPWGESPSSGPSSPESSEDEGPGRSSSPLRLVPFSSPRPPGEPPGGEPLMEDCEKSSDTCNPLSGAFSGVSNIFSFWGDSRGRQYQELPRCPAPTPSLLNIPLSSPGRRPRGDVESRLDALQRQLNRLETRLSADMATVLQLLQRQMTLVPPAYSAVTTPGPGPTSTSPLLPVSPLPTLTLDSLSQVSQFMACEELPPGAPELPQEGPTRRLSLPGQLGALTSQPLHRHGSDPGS

Compound	hERG current change (%, negative = inhibition) at 10uM [%]
O=C(c1ccco1)N1CCN(S(=O)(=O)c2ccc(C3CCCCC3)cc2)CC1	4.54
COc1ccc(C(=O)O/N=C(\N)c2ccc(OC)c(OC)c2)c(OC)c1	-9.79
O=S(=O)(c1cccs1)N1CCN(CC(O)COC2CCCc3ccccc32)CC1 (stereo not drawn)	-25.1
CN(CCOc1ccccc1Cl)Cc1ccccc1.O=C(O)C(=O)O	-15.1
CCCC(=O)Nc1c(-c2ccccc2OC)c(=O)c2ccccc2n1C	-2.53
Cc1ccc(CNC(=O)CCS(=O)(=O)c2ccc3nc(C)sc3c2)cc1	8.31
Cc1cc(C(=O)CSc2nnc(N)s2)c(C)n1CCc1ccc(Cl)cc1	-11.9
COc1cc(C(=O)OCC(=O)Nc2cc(S(=O)(=O)N3CCOCC3)ccc2C)ccc1OCC(C)C	-19.4
O=S(=O)(NCC(O)c1ccccc1)c1ccc(-c2ccccn2)s1 (stereo not drawn)	8.65
CSc1ccccc1NC(=O)c1ccc(Br)o1	-15.6
COc1cccc(/C(C)=N/NC(=O)Cc2c(C)[nH][nH]c2=O)c1	4.33
CC(NC(=O)COC(=O)Cc1ccc(-c2ccccc2)cc1)c1ccccc1 (stereo not drawn)	15.8
Cn1c(CCN2CCCC2)nc2cc(NS(=O)(=O)c3ccccc3)ccc21	-40.9
CCOC(=O)N1CCN(C(=O)c2ccc3c(c2)NC(=O)/C(=C\c2ccc(OC)c(OC)c2)S3)CC1	0.652
Cc1cc(C)cc(C(=O)NC(CC(N)=O)c2ccc(NC3CCCCCCCCCCC3)c([N+](=O)[O-])c2)c1 (stereo not drawn)	-7.58
CCOC(=O)c1csc(NC(=O)C2=COCCO2)n1	16.5
COCCCNC(=O)CCc1c(C)nc2c(-c3ccc(F)cc3)c(C)nn2c1C	-38.5
CCCCC1=CC2=CC(=O)C(C)(OC(=O)CCC(=O)OC)C(=O)C2=CO1 (stereo not drawn)	5.72
CCOC(=O)c1c(NC(=O)CSc2nnc(-c3ccc(C)cc3)o2)sc(C(C)=O)c1C	9.09
CC(C)C[C@@H](C(=O)NC1CCN(Cc2ccccc2)CC1)N1C(=O)N2CCc3c([nH]c4ccccc34)[C@@]2(C)C1=O	-53.2
CCOC(=O)c1sc2nc(C)nc(NCCc3ccc(S(N)(=O)=O)cc3)c2c1C	10.4
Cc1cc(C(C)(C)C)cc(C)c1S(=O)(=O)N1CCN(C(=O)c2cc([N+](=O)[O-])c[nH]c2=O)CC1	-4.17
O=C(COC(=O)c1ccncc1)c1ccc(Br)cc1	-15.3
COc1ccc2cc(C(=O)N3CCC(Cc4ccccc4)CC3)[nH]c2c1	25.5
Cc1ccc2c(c1)N(C(=O)CCC(=O)NCCN1CCOCC1)CC(C)O2 (stereo not drawn)	6.88
CC(C)(C)NC(=O)C(=O)NN=C1CCCCCCCCCCC1	10.5
CC(C)(C)NC(=O)CSc1nc(O)cc(=O)[nH]1	0.43

Compound	hERG current change (%, negative = inhibition) at 10uM [%]
Cc1cc(N2C(=O)C(O)=C(C(=O)c3cc4ccccc4o3)C2c2ccc([N+](=O)[O-])cc2)no1 (stereo not drawn)	15.1
Cc1nnc(NC(=O)CSc2ccc(-c3ccccn3)nn2)s1	12.1
Cc1onc(-c2c(Cl)cccc2Cl)c1C(=O)NCc1ccco1	-1.44
Cc1onc(-c2ccccc2)c1C(=O)Nc1ccccc1NC(=O)c1c(-c2ccccc2)noc1C	8.33
CCN1CCCC1CNC(=O)Cn1cc2c(n1)CCC(C)C2 (stereo not drawn)	5.4
COC(=O)c1c(NC(=S)NNS(=O)(=O)c2ccc(OC)cc2OC)sc2c1CCCCCC2	0.694
COCCN1C(=O)c2ccccc2C(C(=O)NCc2ccco2)C1c1c[nH]c2ccccc12 (stereo not drawn)	-4.01
Cc1ccc(-c2[nH]c3ccccc3c2SCCN)cc1	-27.6
CCCOc1ccc(-c2nc(C#N)c(N3CCc4ccccc4C3)o2)cc1	-5.29
Cc1c(C(=O)N2CCOCC2)oc2ccc(S(=O)(=O)N3CCCCCC3)cc12	0.0285
Cc1ccc2c(c1)C(c1ccccc1)N(C(=O)CC(C)C)CC(=O)N2 (stereo not drawn)	-28.5
CC1(C)Nc2ccccc2C(=O)N1NS(=O)(=O)c1ccccc1	14.5
CCC(=O)c1ccc(OCc2ccc(C(=O)OC)o2)c(OC)c1	-23.7
CC(C)CCN1CCN(CCCc2ccccc2)CC1CCO (stereo not drawn)	-46.6
CC(C(=O)NC1CCCC1)N(C(=O)c1ccc(-c2ccccc2)[nH]1)c1ccccc1F (stereo not drawn)	-20.1
CCC(=O)Nc1ccc(C(=O)CSc2nnc(-c3ccccc3F)n2CCc2ccccc2)cc1	3.06
CCN(CC)CCn1c(NCc2cccc(OC)c2)nc2ccccc21.Cl	-57.8
CC(=NCc1ccco1)c1c(O)n(-c2ccc(C)cc2)c(=O)[nH]c1=O	2.94
O=C(C1CC1)N1N=C(c2ccncc2)CC1(O)C(F)(F)F (stereo not drawn)	21.8
Cc1nc(C)c(C(=O)C2=C(O)C(=O)N(CCN3CCOCC3)C2c2cccnc2)s1 (stereo not drawn)	6.22
O=C(C1CC1)N1CCc2cc(Br)cc(S(=O)(=O)N3CCCCCC3)c21	-16.5
CNC(=O)N1CCC(C(=O)c2c(C)c(C)c(C)c(C)c2C)CC1	-4.56
CN1C(=O)Cc2cc(S(=O)(=O)NCCc3ccccc3)ccc21	-8.58
C=CCSc1nnc2c(n1)[nH]c1c(C)cccc12	-9.69
CCCc1nc2nc(C)c(NS(=O)(=O)c3ccc(F)cc3)c(=O)n2[nH]1	18.3
CC1CCN(CC(O)COC2CCC(C(C)(C)C)CC2)CC1.Cl (stereo not drawn)	-46.2
CCCCC(=O)N=c1sc2cc([N+](=O)[O-])ccc2n1C	-10.4
